Test results reported in patent publication US20060121580A1.

Tests used:
[1] = target: SARS-CoV strain Frankfurt 1 (infectious virus); assay: cell-based or functional assay
[2] = target: SARS-CoV strain Frankfurt 2 (infectious virus); assay: cell-based or functional assay
[3] = target: SARS-CoV preparation (Frankfurt 1 strain); assay: phage ELISA on coated SARS-CoV preparation, plate 4 (no phage antibody 0.051)
[4] = target: fetal bovine serum (FBS), 10% preparation
[5] = target: SARS-CoV preparation (Frankfurt 1 strain); assay: phage ELISA on coated SARS-CoV preparation, plate 3 (no phage antibody 0.054)

Row | Binder | Neutralization titer for Frankfurt 1 strain (dilution factor) [1] | Neutralization titer for Frankfurt 2 strain (dilution factor) [2] | further results
1 | bivalent scFv pyBi03-001C02 (scFv) scFv: SMAEVQLVESGGGLVKPGGSLRLSCAASGFTFSGYSMNWVRQAPGKGLEWVSSISGGSTYYADSRKGRFTISRDNSKNTLYLQMNNLRAEDTAVYYCARHRFRHVFDYWGQGTLVTVLEGTGGSGGTGSGTGTSELTQSPSSLSASVGDRVTIT[about 80 residues left out here]FGQGTKVEIKRAAA | < 20 | < 20 | –
2 | bivalent scFv pyBi03-007C02 (scFv) scFv: SMAEVQLVESGGGLVQPRGSLRLSCAASGFTFSDYRMNWVRQAPGKGLERVAVISYDGSNKYYADSVKGRFTISRDNSKNTLYLQMNSLRAEDTAVYYCARGYWTSLTGFDYWGQGTLVTVLEGTGGSGGTGSGTGTSELTQSPSSLSASVGDRVTIT[about 80 residues left out here]FGQGTKVEIKRAAA | < 20 | < 20 | –
3 | bivalent scFv pyBi03-008C02 (scFv) scFv: SMAEVQLVESGGGVVQPGRSLRLSCAASGFTFSSYPMNWVRQAPGKGLEWVSAISGSGGSTYYADSVKGRFTISRDNSKNTLYLQMNSLRAEDTAVYYCARRVRPRRFDYWGQGTLVTVLEGTGGSGGTGSGTGTSELTQSPSSLSASVGDRVTIT[about 80 residues left out here]FGQGTKVEIKRAAA | < 20 | < 20 | –
4 | bivalent scFv pyBi03-009C02 (scFv) scFv: SMAEVQLVESGGGVVQPGRSLRLSCAASGFTFSDYPMNWVRQAPGKGLEWVSSISGSGGSTYYADSVKGRFTISRDNSKNTLYLQMNSLRAEDTAVYYCAKGLFMVTTYAFDYWGQGTLVTVLEGTGGSGGTGSGTGTSELTQSPSSLSASVGDRVTIT[about 80 residues left out here]FGQGTKVEIKRAAA | < 20 | < 20 | –
5 | bivalent scFv pyBi03-010C02 (scFv) scFv: SMAEVQLVESGGGVVQPGRSLRLSCATSGFTFSGYTMHWVRQAPGKGLEWVSSISGGSTYYADSRKGRFTISRDNSKNTLYLQMNNLRAEDTAVYYCAKGGGLPYLSFDYWGQGTLVTVLEGTGGSGGTGSGTGTSELTQSPSSLSASVGDRVTIT[about 80 residues left out here]FGQGTKVEIKRAAA | < 20 | < 20 | –
6 | bivalent scFv pyBi03-013C02 (scFv) scFv: AMAEVQLVESGGGLVQPGGSLRLSCAASGFTFSDHYMDWVRQAPGKGLEWVGRTRNKANSYTTEYAASVKGRFTISRDDSKNSLYLQMNSLKTEDTAVYYCAKGLTPLYFDYWGQGTLVTVSSGGGGSGGGGSGGGGSEIELTQSPSSLSASVGDRVTIT[about 80 residues left out here]FGQGTKVEIKRAAA | 160 | 80 | –
7 | bivalent scFv pyBi03-014C02 (scFv) scFv: AMAEVQLVESGGGLVQPGGSLRLSCAASGFTFSDHYMDWVRQAPGKGLEWVGRTRNKANSYTTEYAASVKGRFTISRDDSKNSLYLQMNSLKTEDTAVYYCARGISPFYFDYWGQGTLVTVSSGGGGSGGGGSGGGGSEIELTQSPSSLSASVGDRVTIT[about 80 residues left out here]FGQGTKVEIKRAAA | 80 | 80 | –
8 | bivalent scFv pyBi03-002C02 (scFv) scFv: SMAEVQLVESGGGLVKPGGSLRLSCAASGFTFSGYSMSWVRQAPGKGLEWVGRTRNKANSYTTEYAASVKGRFTISRDDSKNSLYLQMNSLKTEDTAVYYCARYYSRSLKAFDYWGQGTLVTVLEGTGGSGGTGSGTGTSELTQSPSSLSASVGDRVTIT[about 80 residues left out here]FGQGTKVEIKRAAA | < 20 | < 20 | –
9 | bivalent scFv pyBi03-003C02 (scFv) scFv: SMAEVQLVESGGGLVQPGGSLRLSCAASGFTFSSYPMNWVRQAPGKGLEWVSAISGSGGSTYYADSVKGRFTISRDNSKNTLYLQMNSLRAEDTAVYYCARRSYFRRFDYWGQGTLVTVLEGTGGSGGTGSGTGTSELTQSPSSLSASVGDRVTIT[about 80 residues left out here]FGQGTKVEIKRAAA | < 20 | < 20 | –
10 | bivalent scFv pyBi03-005C02 (scFv) scFv: SMAEVQLVESGGGLIQPGGSLRLSCAASGFTFSGYTMSWVRQAPGQGLEWVSSISGGSTYYADSRKGRFTISRDNSKNTLYLQMNNLRAEDTAVYYCAKGGGRPYNPFDYWGQGTLVTVLEGTGGSGGTGSGTGTSELTQSPSSLSASVGDRVTIT[about 80 residues left out here]FGQGTKVEIKRAAA | < 20 | < 20 | –
11 | SC03-052 (scFv) scFv: AMAEVQLVQSGTEVKKPGESLKVSCKGSGYGFITYWIGWVRQMPGKGLEWMGIIYPGDSETRYSPSFQGQVTISADKSINTTYLQWSSLKASDTAIYYCAGGSGISTPMDVWGQGTTVTVSSGTGGSGGTGSGTGGS[about 100 residues left out here]FGQGTKVEIKRAA | – | – | OD492 nm [3]: 0.355 OD492 nm
12 | SC03-058 (scFv) scFv: AMAEVQLVQSGGGLVQPGGSLKLSCAASGFTFSSYAMHWVRQAPGKGLEYVSGISSNGGSTYYANSVKGRFTISRDNSKNTLYLQMGSLRAEDMAVYYCARTTNRAFDIWGQGTMVTVSSGTGGSGGTGSGTGGS[about 100 residues left out here]FGQGTKVEIKRAA | – | – | OD492 nm [3]: 0.355 OD492 nm
13 | single-chain phage antibody SC03-014 (scFv) scFv: AMAEVQLVESGGGLVQPGGSLRLSCAASGFTFSDHYMDWVRQAPGKGLEWVGRTRNKANSYTTEYAASVKGRFTISRDDSKNSLYLQMNSLKTEDTAVYYCARGISPFYFDYWGQGTLVTVSSGGGGSGGGGSGGGGSEIELTQSPSSLSASVGDRVTIT[about 80 residues left out here]FGQGTKVEIKRAAA | – | – | OD492 nm [4]: 0.089 OD492 nm
14 | SC03-029 (scFv) scFv: AMAEVQLVQSGGGLVQPGGSLRLSCAASGFTFSSYAMHWVRQAPGKGLEYVSGISSNGGSTYYANSVKGRFTISRDNSKNTLYLQMGSLRAEDMAVYYCARTTNRAFDIWGQGTMVTVSSGTGGSGGTGSGTGGS[about 100 residues left out here]FGAGTKLEIKRAA | – | – | OD492 nm [3]: 0.629 OD492 nm
15 | SC03-030 (scFv) scFv: AMAEVQVVQSGGGLVQPGGSLKLSCAASGFTFSSYAMHWVRQAPGKGLEYVSGISSNGGSTYYANSVKGRFTISRDNSKNTLYLQMGSLRAEDMAVYYCARTTNRAFDIWGQGTMVTVSSGTGGSGGTGSGTGGS[about 100 residues left out here]FGQGTKVEIKRAA | – | – | OD492 nm [5]: 1.15 OD492 nm
